The other results are listed elsewhere or left out.
Tests used:
HSkMC = human skeletal muscle cells; experiment: cytotoxicity call (relative viability < 0.9); settings: 10 µM
HepG2 = experiment: cytotoxicity call (relative viability < 0.9); settings: 10 µM
S. aureus RN4220 = experiment: growth inhibition call (relative growth <= 0.2); settings: 50 µM

Structure (SMILES) | cytotoxicity call (HSkMC) | cytotoxicity call (HepG2) | growth inhibition call (S. aureus RN4220)
C[C@H](CO)N1C[C@H](C)[C@@H](CN(C)Cc2ccc(C(=O)O)cc2)OCCCC[C@H](C)Oc2ccc(NC(=O)c3ccccc3)cc2C1=O | inactive | inactive | inactive
Cc1noc(C)c1NC(=O)N(C)C[C@H]1OCCCC[C@@H](C)Oc2ccc(NS(=O)(=O)c3ccc(F)cc3)cc2C(=O)N([C@H](C)CO)C[C@H]1C | inactive | inactive | inactive
COc1ccc(C#Cc2ccc3c(c2)O[C@H](CN(C)C(C)=O)[C@@H](C)CN([C@H](C)CO)S3(=O)=O)cc1 | inactive | inactive | inactive
C[C@@H]1CN([C@@H](C)CO)C(=O)c2cc(NC(=O)C3CCCCC3)ccc2O[C@@H](C)CCCCO[C@H]1CN(C)C(=O)Cc1ccccc1 | inactive | inactive | inactive
C[C@@H]1CCCCO[C@H](CN(C)C(=O)Nc2ccccc2)[C@H](C)CN([C@@H](C)CO)C(=O)c2cc(NC(=O)Cc3ccccc3)ccc2O1 | inactive | inactive | inactive
C[C@H](CO)N1C[C@H](C)[C@@H](CN(C)C(=O)c2ccc(F)cc2)Oc2cc(Br)ccc2S1(=O)=O | inactive | inactive | inactive
COc1ccc(S(=O)(=O)N(C)C[C@H]2Oc3c(NS(C)(=O)=O)cccc3C(=O)N([C@@H](C)CO)C[C@H]2C)cc1 | inactive | inactive | inactive
COc1ccc(S(=O)(=O)Nc2ccc3c(c2)C(=O)N([C@@H](C)CO)C[C@H](C)[C@@H](CN(C)Cc2ccc(-c4ccccc4)cc2)O3)cc1 | inactive | active | inactive
CONC(=O)Nc1ccc(-c2sc3c(c2CN(C)Cc2ccccc2)c(=O)n(-c2ccccc2)c(=O)n3Cc2c(F)cccc2F)cc1 | inactive | inactive | inactive

Source: the antibiotic and cytotoxicity screens of Wong et al. (2023)
